Self-cleavage data for 84 variants are collected here from the RNAGym collection of RNA variant scans (doi:10.1093/nar/gkz1192).

First the molecules themselves.
B1: CPEB3 Ribozyme (parent)
chain: UAACAGGGGGCCACAGCAGAAGCGUUCACGUCGCAGCCCCUGUCAGAUUCUGGUGAAUCUGCGAAUUCUGCUGUAUAUCUC

The source gives no read counts; variants with many changes may rest on few reads.

Variants of B1 are the subject of this data set. Kind of data set: self-cleavage, relative activity (ratio to wild type); higher = more cleavage; in vitro, sequencing. In outline: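 After error-prone PCR and barcoding, CPEB3 ribozyme mutant libraries were transcribed with T7 RNA polymerase at 37°C for 5 hours, then given 15 min with DNase I before an EDTA stop, and they cleaved during both steps. Reverse transcription with template switching preceded Illumina sequencing. Relative activity divides a variant's cleaved/total read fraction by the unmutated ribozyme's. At least 5 reads were required per variant, and three batches were averaged.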
In the case of A28G G42C U72C U78G, the self-cleavage is 0.29.
For the variant A28G C40U U58C C59A, the self-cleavage was found to be 0.14.
For C27U G53A A57U, the self-cleavage amounted to 0.22.
With A28G U31A U49G U69A U74C the figure was 0; with A28G A45G G73A, 0.71; with A28G A45G A75G, 0.51.
Then A28G C38U U54C C62G A64U, with 0.1.
With A28G U43C U58C the figure was 0.12.
Turning to A28C U41C A45G U80C, the self-cleavage is 0.33.
Then A28G U72A U80C, with 1.09; and A28G U31A U54C C68A U74C U78C, with 0.02; and A28G U43C A64G A65U G73A, with 0.2.
As to A28C A35U U41C U67C, the self-cleavage came to 0.07.
Then A28G U54G G63U U74A, with 1.03.
With A28G U31A A64G the figure was 0.17; with A28G G52A U69C, 0.33; with C27U U43C A45U A47G U60C C81U, 0.05.
Then A28G A56G C68U, with 0.26.
With A28G G53C U69A, the self-cleavage is 0.16.
Then A28G U31C C37U U41C C62U U76G, with 0.07; and A28G C29A C39U U49C, with 0.07; and A28G U54C A64G, with 0.32.
With A28G U31A A35U U74C the figure was 0.09.
With A28G U43A U72C the figure was 0.75.
As for A28G A64G U78A, the self-cleavage came out at 0.37.
With A28G U51A U69G the figure was 0.2; with A28G C59U U60A U69A, 0.11.
With A28G A56G U69C U78C the figure was 0.08.
With A28G U43C U49A U60C C62U U76G the figure was 0.03.
A28G A47G U48A A56U U66C U78C: the self-cleavage stood at 0.16.
Then A28G U51C U78C, with 0.54; and A28C A35U U67C, with 0.12; and A28G U69A U72A, with 0.09.
With A28G A47G U60C the figure was 0.12.
With A28G U31C A35U A57G U69C the figure was 0.12.
For A28G U54G U67A, the self-cleavage amounted to 0.16.
With A28G C38U U58G U66A the figure was 0.12; with C27U U54C A56G U66C A75U, 0.
Then A28U A35G U48C, with 0.45; and A28G G46U A47U U49C A56G A65U, with 0.1.
With A28G A35U U54C U80A the figure was 0.15; with A28G C29A A35G U41A G52A, 0.3; with A28G U31C U67A U80C, 0.1.
For the variant A28G A35U A64G U67C, the self-cleavage came to 0.24.
With A28G A35G U54A the figure was 1.19.
Then A28G G36A U43A A56G A57G, with 0.06; and A28G U48C A57G A64G A65C G70C A75U, with 0.05; and A28G A57C U80C, with 0.25.
For A28C U43A A64G, the self-cleavage is 0.35.
With A28G U49C A64G G73A U76C the figure was 0.18; with A28G G30A A57G, 0.1; with A28G G61C U69C, 0.15.
For the variant A28G A45G A47U U49C G70A A77U, the self-cleavage is 0.13.
For the variant A28G A35G A47G U74C U80C, the self-cleavage was determined as 1.33.
Then A28G U54G U76C A77G, with 0.23.
On to A28G U60C U74A, for which the self-cleavage stood at 0.36.
Then A28G A35U U60C U72A, with 0.09; and A28G A47U A64U, with 0.29.
With A28G U41C A57G A77U U80C the figure was 0.5; with A28G A35G A75G, 1.25.
Then A28G C32A U41A A45U G61A U78A, with 0.09; and A28C A35U U41C U60C U72A, with 0.08; and A28G C40U U54C U69C, with 0.1.
With A28G U41G U48C U51A, the self-cleavage amounted to 0.36.
With A28G G30U G70C the figure was 0.13.
Then A28G U31A U60C U72A, with 0.09; and A28G A56G U74C, with 0.8.
With A28G U31C A35G A57U U78G the figure was 0.61.
Turning to A28C A35U U41C U54C A64G U66C, the self-cleavage turned out to be 0.14.
A28G A47G U54A C62A U76C: the self-cleavage came out at 0.05.
With A28G C29U A64U A77U the figure was 0.13; with A28G A45U U51C A64G U80A, 0.06; with C27U A47G U49A U51C, 0.12.
For the variant A28C C39U A56G U80A, the self-cleavage was found to be 0.18.
For A28G A64U A65G, the self-cleavage was found to be 0.14.
Then A28C U74G A75U, with 0.74; and C27U U43A U48C A64G, with 0.07; and A28G A45G A56G A75U, with 0.19.
Then A28G C44A A45C A64G U72C A77G, with 0.05.
On to A28G U48C A57G U67A, for which the self-cleavage is 0.24.
With A28G A45G U54C, the self-cleavage amounted to 0.42.
With A28G U41A U69C U72C A77G the figure was 0.14; with A28G U31C A64U U66C A75G, 0.11.
Then A28G U41A A64U, with 0.27.
